Data on 87 molecules can be found in paper PMC4336329 (PLoS ONE, 2015).

Among all 310,000 compounds or so, about 14,000 (4.5%) showed an effect of 50% or more. The effect is printed as a negative number. The list shows a part of the results.
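Note: peak tail current of the secondary pulse compared with the same well before compound.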

The assay deals with human ether-à-go-go-related gene (hERG) potassium channel (human, UniProt Q12809). Put plainly: primary screen, population patch clamp on CHO cells stably expressing hERG.
Chain of human ether-à-go-go-related gene (hERG) potassium channel (Q12809 whole entry, looked up): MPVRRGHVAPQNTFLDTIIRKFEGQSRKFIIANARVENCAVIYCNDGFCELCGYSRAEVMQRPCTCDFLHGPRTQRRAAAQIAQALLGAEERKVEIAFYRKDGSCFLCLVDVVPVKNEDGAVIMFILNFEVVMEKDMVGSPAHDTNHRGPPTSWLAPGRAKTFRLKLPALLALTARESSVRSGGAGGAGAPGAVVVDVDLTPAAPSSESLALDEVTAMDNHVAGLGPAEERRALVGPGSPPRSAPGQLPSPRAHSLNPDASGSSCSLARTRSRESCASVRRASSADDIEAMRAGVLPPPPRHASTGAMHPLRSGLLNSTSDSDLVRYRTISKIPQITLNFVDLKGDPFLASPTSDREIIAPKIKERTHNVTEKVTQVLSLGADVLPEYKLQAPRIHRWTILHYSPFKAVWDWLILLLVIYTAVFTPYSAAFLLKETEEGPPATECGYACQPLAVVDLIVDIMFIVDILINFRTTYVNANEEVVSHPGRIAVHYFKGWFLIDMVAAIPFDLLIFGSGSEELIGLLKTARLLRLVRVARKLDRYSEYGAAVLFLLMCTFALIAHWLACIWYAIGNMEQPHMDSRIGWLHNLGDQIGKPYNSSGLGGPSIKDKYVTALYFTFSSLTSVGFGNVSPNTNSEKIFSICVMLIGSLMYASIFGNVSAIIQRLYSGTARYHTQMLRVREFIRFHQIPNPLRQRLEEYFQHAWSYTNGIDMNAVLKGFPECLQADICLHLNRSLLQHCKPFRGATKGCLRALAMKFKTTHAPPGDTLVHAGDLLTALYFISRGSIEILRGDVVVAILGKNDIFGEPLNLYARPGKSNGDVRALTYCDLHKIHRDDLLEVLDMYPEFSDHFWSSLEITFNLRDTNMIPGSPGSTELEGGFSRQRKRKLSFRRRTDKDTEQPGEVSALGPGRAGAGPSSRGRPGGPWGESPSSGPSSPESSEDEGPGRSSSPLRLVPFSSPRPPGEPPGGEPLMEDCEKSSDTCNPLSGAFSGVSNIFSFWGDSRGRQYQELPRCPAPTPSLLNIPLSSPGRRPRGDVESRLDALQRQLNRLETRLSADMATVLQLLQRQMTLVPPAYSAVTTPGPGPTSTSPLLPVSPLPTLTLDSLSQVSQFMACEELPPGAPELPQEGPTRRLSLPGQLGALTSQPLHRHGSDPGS
Turning to `O=C(c1ccc(F)cc1)N1CCCC(N2CCN(Cc3ccc4c(c3)OCO4)CC2)C1` (stereo not drawn), the “hERG current change (%, negative = inhibition) at 10uM” value is reported as -22.2%.

In the case of `Cc1ccc2nc(SCC(=O)c3ccc(O)cc3O)[nH]c2c1`, the “hERG current change (%, negative = inhibition) at 10uM” value turned out to be 1.14%.

Regarding `O=C(CSc1nc2ccc(Cl)cc2[nH]1)c1ccc2c(c1)OCO2`, the “hERG current change (%, negative = inhibition) at 10uM” value was -0.302%. In the case of `COc1cc(C(=O)OCC(=O)Nc2ccc(F)cc2F)cc(OC)c1OC`, the “hERG current change (%, negative = inhibition) at 10uM” value is -5.93%. The figure for `CS(=O)(=O)c1ccccc1C(=O)Nc1nc2ccccc2[nH]1` is 13.8%; for `CNC(=O)C1CCCN1S(=O)(=O)c1ccc(OC)cc1` (stereo not drawn) it is 24.2%. In the case of `Cc1cc(SCC(=O)Nc2ccc(O)cc2)n2ncc(-c3ccccc3)c2n1`, the “hERG current change (%, negative = inhibition) at 10uM” value turned out to be 4.7%. To `Cc1cc(Cl)ccc1OCC(=O)NN1C(=O)C2C3C=CC(C3)C2C1=O` (stereo not drawn) belongs 5.12%.

With `CC1C(=O)N(Cc2ccc([N+](=O)[O-])cc2)c2ccccc2N1C(=O)C1CC1` (stereo not drawn), the “hERG current change (%, negative = inhibition) at 10uM” value is recorded as -19.4%.

As to `O=C(O)c1ccc(CNC(=O)c2ccccc2NC(=O)c2cccc([N+](=O)[O-])c2)cc1`, the “hERG current change (%, negative = inhibition) at 10uM” value came to 6.34%. To `O=C(c1ccc2[nH]c(=O)c(=O)[nH]c2c1)N1CCc2ccccc2C1` belongs 17.1%; to `COc1ccc(CNC(=O)COC(=O)CCS(=O)(=O)c2ccc(C)cc2)cc1OC`, 16.9%. As to `Cc1ccc(S(=O)(=O)NC(CC(C)C)C(=O)NCc2ccco2)cc1` (stereo not drawn), the “hERG current change (%, negative = inhibition) at 10uM” value was -4.34%. To `Fc1ccccc1N1CCN(C(c2ccncc2)c2nnnn2C2CCCC2)CC1` (stereo not drawn) belongs -38.8%; to `COc1ccccc1S(=O)(=O)Cc1ccc(C(=O)N2CCN(c3ccc(C)cc3)C(C)C2)o1` (stereo not drawn), -24.6%; to `Cn1ncc2c(Nc3ccc([N+](=O)[O-])cc3)nc(Cl)nc21`, 18.9%.

`Cc1cc(C(=O)N/N=C2\CC(=O)CC(C)(C)C2)c2ccccc2n1`: the “hERG current change (%, negative = inhibition) at 10uM” value is listed as 23%. To `CC(=O)c1sc(NC(=O)C(C)C)nc1C` belongs -0.878%. To `O=C(NN1C(=O)/C(=C/c2ccc(O)c([N+](=O)[O-])c2)SC1=S)c1ccccc1Cl` belongs 39.8%; to `O=C(Nc1ccc(Br)cc1Cl)c1cnccn1`, 5.88%; to `CCOCCCN(C(=O)c1snc(C(N)=O)c1N)C(C(=O)NC1CCCC1)c1ccc(O)cc1` (stereo not drawn), 3.52%.

With `COc1ccc(C(=O)N(C)Cc2ccccc2)cc1Br`, the “hERG current change (%, negative = inhibition) at 10uM” value is given as -8.29%. The figure for `CC(=O)c1ccc(NC(=O)c2cc(=O)[nH]c3ccccc23)cc1` is 2.57%; for `COc1ccc(OC)c2sc(N3CCCCC3)nc12` it is 8.42%; for `Cc1cnn(C(=S)NCc2ccc(Cl)cc2)c1` it is -21.1%.

As for `CCN(CC)C(=O)Cn1cc(C(=O)C(=O)NCc2ccccn2)c2ccccc21`, the “hERG current change (%, negative = inhibition) at 10uM” value worked out at 12.3%. To `Cc1ccc(O)c(-c2cc(C(=O)NCc3ccccc3)[nH]n2)c1` belongs -6.47%. To `COc1ccccc1C(=O)N1CCN(C(=O)Cc2ccccc2)CC1` belongs 16.3%; to `N#C/C(=C\Nc1ccccc1SC(F)(F)F)c1nc(-c2ccccc2)cs1`, 10.8%; to `COc1cccc(-c2nn(-c3ccccc3)cc2CN2CCCO2)c1`, -5.81%. For the molecule `CC(=O)Nc1cccc(C(=O)/C=C/c2ccc(C)cc2)c1`, the “hERG current change (%, negative = inhibition) at 10uM” value is listed as -23.6%.

On to `Cc1ccc(S(=O)(=O)N2CCCCC2)cc1NC(=O)CSc1nnc(N)s1`, for which the “hERG current change (%, negative = inhibition) at 10uM” value was -20.2%.

Turning to `O=C(COc1cccc(C(F)(F)F)c1)NCCCN1CCCC1=O`, the “hERG current change (%, negative = inhibition) at 10uM” value is -9.86%.

`O=C(Cc1ccccc1)Nc1ccc(C(=O)NCc2ccccc2)cc1`: the “hERG current change (%, negative = inhibition) at 10uM” value is on record as 11.2%. The figure for `COC(=O)c1ccc(NC(=O)C(=O)N2CCCC2)cc1` is -3.97%; for `CC(OC(=O)C1CC(=O)N(Cc2ccccc2)C1)C(=O)Nc1cccc(C#N)c1` (stereo not drawn) it is -0.693%.

As to `CC(=O)Nc1ccc(Nc2ccc3nonc3c2[N+](=O)[O-])cc1`, the “hERG current change (%, negative = inhibition) at 10uM” value is on record as 8.42%. As for `O=C(O)c1nccnc1C(=O)NCc1csc2ccc(Cl)cc12`, the “hERG current change (%, negative = inhibition) at 10uM” value is 19%. To `COC(=O)C1=C2SCC(=O)N2C(N)=C(C#N)C1` belongs 2.39%; to `Cc1cccnc1NC(=O)COc1ccc2c(c1)CCC2`, 3.73%.

For `O=C(NCc1ccccc1)/C(NC(=O)c1ccccc1)=C(/Sc1ccccn1)c1ccccc1`, the “hERG current change (%, negative = inhibition) at 10uM” value is given as 12.3%.

Regarding `O=C(O)C[C@H]1c2ccccc2S(=O)(=O)N1C1CCCC1`, the “hERG current change (%, negative = inhibition) at 10uM” value was found to be 18.4%. The figure for `CC(C)N(Cc1ccccc1)C(=O)COC(=O)C1CCN(S(=O)(=O)c2ccc3c(c2)OCCO3)CC1` is -9.7%; for `CC(C)CCNC(=O)C(C)N(Cc1ccc(F)cc1)C(=O)c1ccc(CN2CCCCC2)o1` (stereo not drawn) it is -30.1%.

For the molecule `CCn1c(=O)c2cc(C(=O)NCCCOC)sc2c2ccccc21`, the “hERG current change (%, negative = inhibition) at 10uM” value amounted to 7.3%. To `CCOC(=O)c1c(N)c(C#N)c2n1CCCCC2` belongs 8.65%; to `CC(C(=O)N1CCOCC1)c1ccc([N+](=O)[O-])cc1` (stereo not drawn), 9.94%; to `CC(Sc1nc(-c2ccccc2)cc(C(F)(F)F)n1)C(=O)N1CCCCC1` (stereo not drawn), -17.9%. Take `COc1cccc(-c2csc(N3CCN(CC(=O)NNC(=O)c4ccc(Cl)cc4)CC3)n2)c1`: the “hERG current change (%, negative = inhibition) at 10uM” value worked out at 7.95%.

With `COC(=O)c1c(C)nc(C)c(C(=O)OC)c1-c1ccc(OC)c(OC)c1`, the “hERG current change (%, negative = inhibition) at 10uM” value is recorded as 16.8%. To `CC(C)[C@H](NC(=O)N1c2ccccc2NC(=O)[C@@H]1C(C)C)C(=O)N[C@H](Cc1ccccc1)C(=O)O` belongs -1.33%. To `Cc1ccc(OCC(=O)N2CCN(C3=NS(=O)(=O)c4ccccc43)CC2)cc1` belongs -60.8%. To `NC(=O)C[N+]1(CC#CC(O)(c2ccccc2)c2ccccc2)CCCC1.[I-]` belongs 9.8%; to `CCCNC(=O)CS(=O)(=O)Cc1nc(-c2cccc(OC)c2)oc1C`, -70%; to `CCOc1ccccc1CNC(=O)c1ccc2c(c1)N(CC)CCS2`, -13.8%. For the molecule `CC(=O)N(CC(C)C(=O)O)c1c(I)cc(I)c(N)c1I` (stereo not drawn), the “hERG current change (%, negative = inhibition) at 10uM” value was 18.5%. The figure for `Cc1cc(C(=O)NCc2ccccc2Cl)c2ccccc2n1` is 9.49%; for `CCC(C)NC(=O)N[C@@H](CCSC)C(=O)O` (stereo partly drawn) it is 5.84%; for `CC(=O)C1=C(C)OC(N)=C(C#N)C1c1cccc2ccccc12` (stereo not drawn) it is 4.77%. The figure for `COC(=O)C1=C(C(=O)OC)[C@@H]2Nc3ccccc3[C@@]23C[C@@H](C(=O)OC)N(C(=O)c2ccco2)C3=N1` is -16.2%; for `O=C1c2cccnc2C(=O)N1Cc1ccc(S(=O)(=O)N2CCN(c3ccc(Cl)cc3)CC2)cc1` it is -5.53%.

Consider `COC(=O)C1=C(c2ccc(OC)c(OC)c2)C[C@@H]2CC[C@H]1N2C(=O)NC1CCCCC1`, for which the “hERG current change (%, negative = inhibition) at 10uM” value is -0.475%. To `O=C(O)c1ccccc1CSc1ccccn1` belongs 10.4%. The figure for `Cc1c(NCc2ccncc2)cccc1C(=O)O` is 14.1%; for `Cn1c(O)c(N=NC(=N)N)c2ccccc21` it is 19.3%; for `NS(=O)(=O)CCCc1ccccc1` it is 13.6%.

As to `CCn1c(CCNS(=O)(=O)c2ccccc2Br)nnc1SC`, the “hERG current change (%, negative = inhibition) at 10uM” value amounted to 0.136%. The figure for `O=C(Nc1ccc(OC(F)F)c(Cl)c1)[C@@H]1CCCN1C(=O)c1cccs1` is -74.3%.

On to `CN1CCc2c(sc(N)c2C(=O)c2ccc(Cl)cc2)C1`, for which the “hERG current change (%, negative = inhibition) at 10uM” value came out at 4.48%.

`Cc1cc(C)c(S(=O)(=O)N2CCCOC2CNC(=O)C(=O)NCCc2c[nH]c3ccccc23)c(C)c1` (stereo not drawn): the “hERG current change (%, negative = inhibition) at 10uM” value amounted to 1.55%. To `COc1ccc(N/C=C/C(=O)c2cc(OC)c(OC)c(OC)c2)cc1` belongs -8.76%; to `CSc1ccccc1OCc1cc(C(=O)N(C)Cc2c(C)n[nH]c2C)no1`, -11.7%. To `Cc1ccc(N2CC(C(=O)Nc3ncc([N+](=O)[O-])s3)CC2=O)cc1` (stereo not drawn) belongs 6.15%.

Take `COc1ccc(Cn2c(CCC(=O)Nc3ccccc3)nc3cccnc32)cc1`: the “hERG current change (%, negative = inhibition) at 10uM” value is recorded as -9.7%.

As to `COc1ccccc1NC(CC(=O)c1ccccc1)C(=O)OCC(=O)c1ccc(Br)cc1` (stereo not drawn), the “hERG current change (%, negative = inhibition) at 10uM” value is given as -3.81%. To `COc1ccc(C2N(c3ccccn3)C(=O)C3CCCN32)c(OC)c1` (stereo not drawn) belongs 8.94%.

With `O=C(CSc1ccccc1F)NNC(=O)c1ccncc1`, the “hERG current change (%, negative = inhibition) at 10uM” value is on record as 4.8%. Regarding `O=S(=O)(Cc1ccccc1)N1CCN(Cc2ccc(Br)cc2)CC1`, the “hERG current change (%, negative = inhibition) at 10uM” value is given as 14.5%. The figure for `Cc1noc(C)c1CCC(=O)NC1CCCN(Cc2ccc(Cl)cc2)C1` (stereo not drawn) is -24%. The figure for `COc1cc(CNCCSc2nnnn2C)cc(Br)c1OCc1ccc(F)cc1.Cl` is -43.9%. The figure for `COc1ccc(CN2CCNC(=O)C2CC(=O)NCCCn2nnc3ccccc32)cc1C` (stereo not drawn) is -2.87%; for `CC(=O)c1cccc(NC(=O)CCNS(=O)(=O)c2cccc3nonc23)c1` it is 12.8%. As to `Cc1c(Cl)cccc1NC(=O)c1ccc(-n2ccnc2)nc1`, the “hERG current change (%, negative = inhibition) at 10uM” value is reported as -3.33%. Consider `CCn1c(SCC(=O)c2cccs2)nnc1-c1cccs1`, for which the “hERG current change (%, negative = inhibition) at 10uM” value is recorded as -33.2%. To `CC(=O)Nc1cccc(C(=O)OC(C)C(=O)N2CCc3ccccc32)c1` (stereo not drawn) belongs -33.2%; to `COc1ccc(C(=O)NC2CCCCCC2)cc1S(=O)(=O)N1CCCc2ccccc21`, 11.3%. For `Cc1ccsc1-c1nc(CN2C[C@@H](C)O[C@@H](C)C2)c(C)o1`, the “hERG current change (%, negative = inhibition) at 10uM” value came to 17.5%.
